# In a collection of fitness landscapes (doi:10.1016/j.celrep.2020.107928):
# In all, about 81,000 sequences were measured (“one-hybrid fitness for binding NBS DNA”: median about -0.1, highest 2% from about 0.36 on). The list shows a part of the results.
# B1: Caulobacter ParB omega fusion; a variant is named by its letters at X, in order, B8GW30 (parent)
# chain: MESVVVGEPGMSEGRRGLGRGLSALLGEVDAAPAQAPGEQLGGSREAPIEILQRNPDQPRRTFREEDLEDLSNSIREKGVLQPILVRPSPDTAGEYQIVAGERAWRAAQRAGLKTVPIMVRELDDLAVLEIGIIENVQRADLNVLEEALSYKVLMEKFERTQENIAQTIGKSXSHVANXMRLLXLPDEVQSYLVSGELTAXHARAIAAAADPVALAKQIIEGGLSVRETEALARKAPNLSAGKSKGGRPPRVKDTDTQALESDLSSVLGLDVSIDHRGSTGTLTITYATLEQLDDLCNRLTRGI
# Variants of: B1
# Assay: one-hybrid fitness for binding NBS DNA (the Noc-binding site; scaled: cognate 1, non-cognate 0); higher = stronger binding
# Details: with NBS DNA site
# Procedure, shortened: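 Selection: bacterial one-hybrid in E. coli USO, HIS3 reporter with the site 19 bp from the promoter, 48 hours at 37°C on M9-minus-histidine plus 0.1 mM IPTG and 5 mM 3-AT. Libraries were Caulobacter ParB with four randomised specificity codons, sequenced on Illumina before and after selection. Fitness is the rescaled log change in variant-to-wild-type read ratio, anchored to the cognate and non-cognate sites.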
row,Variant,one-hybrid fitness for binding NBS DNA
1,WYYS,≤ 0.2
2,EHRR,≤ 0.2
3,ECKT,≤ 0.2
4,PGYQ,≤ 0.2
5,SPHM,≤ 0.2
6,PNIS,≤ 0.2
7,KCTC,≤ 0.2
8,LLGR,≤ 0.2
9,TPQD,≤ 0.2
10,KRDL,≤ 0.2
11,GYGM,≤ 0.2
12,GSNT,≤ 0.2
13,CSWC,≤ 0.2
14,PPQV,≤ 0.2
15,EMMN,≤ 0.2
16,PVAP,≤ 0.2
17,PMFR,≤ 0.2
18,SWGV,≤ 0.2
19,RAYA,≤ 0.2
20,SQKG,≤ 0.2
21,ISVV,≤ 0.2
22,ESRL,≤ 0.2
23,AIHK,≤ 0.2
24,WILG,≤ 0.2
25,KIYF,≤ 0.2
26,KSMS,≤ 0.2

row,Variant,one-hybrid fitness for binding NBS DNA
1,RMPY,≤ 0.2
2,EQCR,≤ 0.2
3,PSFL,≤ 0.2
4,IWRT,≤ 0.2
5,VMLV,≤ 0.2
6,LTML,≤ 0.2
7,PVGW,≤ 0.2
8,REHT,≤ 0.2
9,TANR,≤ 0.2
10,TTWY,≤ 0.2
11,ATEC,≤ 0.2
12,DGPC,≤ 0.2
13,YMKC,≤ 0.2
14,SRTF,≤ 0.2
15,IQRS,≤ 0.2
16,PRDE,≤ 0.2
17,TKPV,≤ 0.2
18,PIQS,≤ 0.2
19,QRDG,≤ 0.2
20,DRGY,≤ 0.2
21,GPDF,≤ 0.2
22,HNME,≤ 0.2
23,LSHL,≤ 0.2
24,LALV,≤ 0.2
25,NNAW,≤ 0.2
26,NSKE,≤ 0.2

row,Variant,one-hybrid fitness for binding NBS DNA
1,RMYH,≤ 0.2
2,MGDG,≤ 0.2
3,GLTH,≤ 0.2
4,NEMI,≤ 0.2
5,THDN,≤ 0.2
6,EHVA,≤ 0.2
7,LHGA,≤ 0.2
8,KRNS,0.453
9,NIEL,≤ 0.2
10,THHW,≤ 0.2
11,CCMG,≤ 0.2
12,GKMS,≤ 0.2
13,TRQS,≤ 0.2
14,YHTT,≤ 0.2
15,KIRF,≤ 0.2
16,QWIG,≤ 0.2
17,LKHT,≤ 0.2
18,AMWG,≤ 0.2
19,PSKS,≤ 0.2
20,FVTC,≤ 0.2
21,WGYV,≤ 0.2
22,RLTF,≤ 0.2
23,SQMF,≤ 0.2
24,SAEC,≤ 0.2
25,FHRC,≤ 0.2
